# The whole screen tested about 310,000 compounds, of which about 2,200 (0.71%) showed an effect of 50% or more. The effect is printed as a negative number. This is one part of the list.
# Biological target: human ether-à-go-go-related gene (hERG) potassium channel (human, UniProt Q12809)
# Test: primary screen, population patch clamp on CHO cells stably expressing hERG
# Sequence of human ether-à-go-go-related gene (hERG) potassium channel (Q12809 whole entry, looked up): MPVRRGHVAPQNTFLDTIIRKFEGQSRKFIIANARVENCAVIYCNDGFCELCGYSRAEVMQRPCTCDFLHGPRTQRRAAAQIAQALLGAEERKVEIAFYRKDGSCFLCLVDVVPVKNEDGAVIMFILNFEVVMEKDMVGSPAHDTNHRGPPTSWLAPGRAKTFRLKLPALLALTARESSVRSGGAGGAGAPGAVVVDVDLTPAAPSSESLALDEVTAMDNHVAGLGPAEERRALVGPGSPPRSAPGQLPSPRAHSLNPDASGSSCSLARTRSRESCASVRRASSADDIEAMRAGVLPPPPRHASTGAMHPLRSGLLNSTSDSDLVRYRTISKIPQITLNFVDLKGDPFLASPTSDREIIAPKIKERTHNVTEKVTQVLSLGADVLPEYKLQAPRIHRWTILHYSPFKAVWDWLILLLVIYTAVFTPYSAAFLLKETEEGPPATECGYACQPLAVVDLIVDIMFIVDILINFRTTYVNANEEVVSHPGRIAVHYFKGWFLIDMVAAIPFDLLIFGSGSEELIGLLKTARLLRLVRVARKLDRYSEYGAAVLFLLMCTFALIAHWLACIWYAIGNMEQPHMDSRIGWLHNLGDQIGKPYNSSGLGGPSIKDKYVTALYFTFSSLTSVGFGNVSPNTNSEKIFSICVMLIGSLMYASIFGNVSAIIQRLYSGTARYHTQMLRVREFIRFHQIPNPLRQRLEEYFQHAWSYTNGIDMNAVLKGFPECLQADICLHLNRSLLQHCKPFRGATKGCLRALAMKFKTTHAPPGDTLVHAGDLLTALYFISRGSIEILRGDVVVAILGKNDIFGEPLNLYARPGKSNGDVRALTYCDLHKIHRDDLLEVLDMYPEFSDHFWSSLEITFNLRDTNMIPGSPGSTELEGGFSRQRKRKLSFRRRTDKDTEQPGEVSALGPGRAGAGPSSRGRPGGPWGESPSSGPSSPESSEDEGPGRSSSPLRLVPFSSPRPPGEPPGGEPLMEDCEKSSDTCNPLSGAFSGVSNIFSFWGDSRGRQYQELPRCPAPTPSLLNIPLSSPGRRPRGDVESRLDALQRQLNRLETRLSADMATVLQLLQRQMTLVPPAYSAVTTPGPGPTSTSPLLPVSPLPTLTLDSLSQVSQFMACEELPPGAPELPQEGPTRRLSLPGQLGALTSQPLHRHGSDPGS
row,SMILES,"hERG current change (%, negative = inhibition) at 1uM"
1,CCOc1cccc(OCCCNCCCOC)c1,-2.81%
2,Cn1nc(C(=O)Nc2ccc3c(c2)OCCO3)c2ccccc2c1=O,-4.96%
3,O=C1Nc2ccccc2/C1=N\N=C\C1=C(N2CCOCC2)C(=C\c2ccccc2)/CC1,11.3%
4,CCSC1=N/C(=C\c2ccccc2)C(=O)N1,8.42%
5,Cc1csc(NC(=O)c2ccc(=O)[nH]c2)n1,10.5%
6,O=C(Nc1cccnc1)C(Cc1ccccc1)n1cccc1 (stereo not shown),13.4%
7,Cc1ccc(C)c(C(=O)CN2C(=O)NC3(CCC(C)CC3)C2=O)c1 (stereo not shown),5.6%
8,CN(Cc1ccn[nH]1)C(=O)C1CCC(=O)N(Cc2cccc(C(F)(F)F)c2)C1 (stereo not shown),8.8%
9,CCOc1cccc2sc(N(CCCN(C)C)C(=O)c3ccc(S(=O)(=O)N(C)c4ccccc4)cc3)nc12.Cl,-22.8%
10,COc1ccccc1/C=C/C=NC1C(=O)N(c2ccccc2)[N+](C)=C1C (stereo not shown),13.1%
11,Cc1ccc(CNC(=O)N2CCN(c3ccc(C)cc3)CC2)cc1,14.1%
12,CCOc1ccc(NS(=O)(=O)c2ccc(C(=O)N3CCCCC3)cc2)cc1,-10.8%
13,CNC(=O)C(C)N1c2cccc3cccc(c23)S1(=O)=O (stereo not shown),15%
14,O=C(c1ccccc1)c1ccc2nc(-c3ccc(NC(=O)c4ccccc4Br)cc3)[nH]c2c1,16%
15,COc1ccccc1C(=O)Nc1nc(C)cc(C)n1,15.9%
16,CCCCNC(=O)Nc1cc(C(=O)OC)ccc1Cl,11.7%
17,Cc1cc(C(=O)OCC(=O)N2CC(C)OC(C)C2)ccc1[N+](=O)[O-] (stereo not shown),5.59%
18,COc1cccc(NC(=O)Cc2nnc(SCC(=O)NC3CCCC3)n2C)c1,12%
19,CC(NCc1ccc(S(N)(=O)=O)cc1)C(=O)NCc1ccccc1 (stereo not shown),10.6%
20,CCc1ccc(NC(=O)N2CCCCCC2)cc1,3.52%
21,Cc1ccc(NC(=S)N/N=C/c2c(Cl)cccc2Cl)c(C)c1,9.75%
22,C[C@H](CCC(=O)NCCS(=O)(=O)[O-])[C@H]1CC[C@H]2[C@@H]3[C@H](O)C[C@@H]4C[C@H](O)CC[C@]4(C)[C@H]3C[C@H](O)[C@]12C.O.[Na+],15.5%
23,COc1ccc(S(=O)(=O)NCC2CCCN(Cc3cccnc3)C2)cc1 (stereo not shown),-8.34%
24,O=C(CSc1ncn[nH]1)NCc1ccc2c(c1)OCO2,13.1%
25,CC(C)(C)c1cc(CCC(=O)N2CCNCC2)c(C(C)(C)C)cc1O,6.95%
26,O=C(N/N=C/c1ccco1)c1ccccc1OCc1ccc(Br)cc1,8.32%
27,CCCC(=O)N1CCN(Cc2ccc3c(c2)OCO3)CC1,9.39%
28,Cc1ccc(NC(=O)CSCC(=O)Nc2ncc3c(n2)CC(c2ccco2)CC3=O)cc1 (stereo not shown),3.4%

row,SMILES,"hERG current change (%, negative = inhibition) at 1uM"
1,O=S(=O)(Nc1ncccn1)c1ccc(F)cc1,11.9%
2,O=C(Nc1cccnc1)c1cc(S(=O)(=O)N2CCOCC2)ccc1Br,-17.2%
3,C=CCNC(=O)CN(c1ccc(F)cc1)S(=O)(=O)c1ccc(OC)cc1,-0.23%
4,Cc1ccc(CNC(=O)c2ccc(N3CCCC3=O)cc2)cc1,5.86%
5,CC(C)CCOP(=O)(c1ccc(N(C)C)cc1)C(O)c1ccc(C(C)C)cc1 (stereo not shown),14.4%
6,Cc1ccccc1CN1CCN(CC(=O)NCc2ccccn2)C1=O,18.7%
7,Cc1cc(-c2nn(-c3ccccc3)cc2/C=C2\SC(N)=NC2=O)ccc1OC(C)C,7.78%
8,COc1ccc(CNc2nc(C)c([N+](=O)[O-])c(C)c2C#N)cc1,5.95%
9,CC(C(=O)Nc1ccccc1Br)c1ccc([N+](=O)[O-])cc1 (stereo not shown),-1.59%
10,O=C1C=C(c2ccc3c(c2)oc2ccccc23)C[C@@H](c2ccc3c(c2)OCO3)C1,18.3%
11,O=C(N/N=C/c1cc(Cl)cc([N+](=O)[O-])c1O)c1ccc2c(c1)OCO2,16.2%
12,CC(=O)C1C(=O)C=C(c2ccco2)CC1c1ccccc1 (stereo not shown),4.32%
13,COc1ccc(N(C(=O)CS(=O)CC(=O)Nc2ccc(F)cc2)C(C(=O)NC2CCCCC2)c2cccs2)cc1 (stereo not shown),6.31%
14,O=C(NCCCC(NC(=O)OCc1ccccc1)C(=O)O)OCc1ccccc1 (stereo not shown),17.5%
15,CCOC(=O)c1cc(NC(=O)Nc2ccccn2)c(C)nc1C,-0.343%
16,O=C(NCCN1C(=O)S/C(=C/c2ccccc2)C1=O)C1CCCN1C(=O)c1cccs1 (stereo not shown),-0.548%
17,CC(C)CCNC(=O)c1cc(S(=O)(=O)N2CCCCC2)ccc1N1CCOCC1,7.49%
18,O=C(N/N=C/c1ccc(F)cc1)c1cc(-c2ccc3c(c2)OCO3)n[nH]1,3.43%
19,O=C(O)C(=O)O.O=[N+]([O-])c1ccc(N2CCN(Cc3ccc([N+](=O)[O-])o3)CC2)cc1,-47.3%
20,CCN(CC)N=O,11.1%
21,Cc1ccc(-c2nc(C(F)(F)F)cc(=O)[nH]2)cc1,14.1%
22,Cc1ccc(C(=O)Nc2nnc(SCC(=O)N3CCCc4ccccc43)s2)cc1,10%
23,O=C(C[n+]1ccc(-c2nnc3n2CCCCC3)cc1)c1ccc(Cl)cc1.[Br-],10.5%
24,CCOC(=O)c1ccc(N2CCN(C(=O)c3ccccc3)CC2)c(NC(=O)c2ccco2)c1,-9.66%
25,COC(=O)NCc1ccc2c(c1)OCO2,7.79%
26,O=C(NCc1ccccc1)[C@]1(C(F)(F)F)C[C@H](CCc2ccccc2)CCCO1,9.86%
27,CCOC(=O)c1c(C(F)(F)F)cc(-c2ccc(F)cc2)nc1C,14.9%

# From publication PMC4336329 (PLoS ONE, 2015)
